To fix the notation:
B1: PhoQ; a variant is named by its letters at X, in order, P23837 (parent)
chain: MKKLLRLFFPLSLRVRFLLATAAVVLVLSLAYGMVALIGYSVSFDKTTFRLLRGESNLFYTLAKWENNKLHVELPENIDKQSPTMTLIYDENGQLLWAQRDVPWLMKMIQPDWLKSNGFHEIEADVNDTSLLLSGDHSIQQQLQEVREDDDDAEMTHSVAVNVYPATSRMPKLTIVVVDTIPVELKSSYMVWSWFIYVLSANLLLVIPLLWVAAWWSLRPIEALAKEVRELEEHNRELLNPATTRELTSLVRNLNRLLKSERERYDKYRTTLTDLTHSLKTPLXXLQXXLRSLRSEKMSVSDAEPVMLEQISRISQQIGYYLHRASMRGGTLLSRELHPVAPLLDNLTSALNKVYQRKGVNISLDISPEISFVGEQNDFVEVMGNVLDNACKYCLEFVEISARQTDEHLYIVVEDDGPGIPLSKREVIFDRGQRVDTLRPGQGVGLAVAREITEQYEGKIVAGESMLGGARMEVIFGRQHSAPKDE

This is one part of the list.

The source of these data is a collection of fitness landscapes (doi:10.1126/science.1257360).

The variants in this assay derive from B1. Nature of the assay: enrichment ratio after two sorts for PhoP signalling (ratio (wild type AVST 3.29)); higher = more functional. To be noted: with PhoP (E. coli).
For the variant KSRG, the enrichment ratio was not above 0.25. For WFDR, the enrichment ratio was not above 0.25. In the case of LSML, the enrichment ratio came to 9.48. For HRMC the value was not above 0.25; for KMYS, not above 0.25. With YYYT the figure was not above 0.25; with VPTT, not above 0.25; with DIMH, not above 0.25. For RLKQ the value was not above 0.25; for MLCW, not above 0.25; for TNYS, 8.4.

For QCHQ, the enrichment ratio was not above 0.25.

In the case of RMHF, the enrichment ratio is not above 0.25. With WYCN the figure was not above 0.25; with QCMQ, not above 0.25; with SGTM, 4.45. As for GFAA, the enrichment ratio is not above 0.25. As for FAVN, the enrichment ratio is not above 0.25. With FMQN the figure was not above 0.25; with MFTR, not above 0.25.

Regarding RVAM, the enrichment ratio is not above 0.25. For FTLQ the value was 6.79; for EAEP, not above 0.25. With HTGS the figure was not above 0.25; with FDKQ, not above 0.25. With DIAP, the enrichment ratio was not above 0.25.

With PWRK, the enrichment ratio is not above 0.25.

On to YEKM, for which the enrichment ratio was not above 0.25.

On to GDQS, for which the enrichment ratio was not above 0.25. With VRNF the figure was not above 0.25; with AFAR, not above 0.25.

On to TLGE, for which the enrichment ratio was 2.24. With ALNS the figure was not above 0.25; with FRAT, not above 0.25.

For the variant GCRP, the enrichment ratio is not above 0.25. With GTHW the figure was not above 0.25. For QQCA the value was not above 0.25.

Turning to WNRD, the enrichment ratio was not above 0.25. With DDIP the figure was not above 0.25; with NWNY, not above 0.25; with LYPK, not above 0.25. With WHGK the figure was not above 0.25; with QALF, not above 0.25; with QIIY, not above 0.25.

As for AGRT, the enrichment ratio is not above 0.25.

Take SVMY: the enrichment ratio was 3.92. As for TPDR, the enrichment ratio was not above 0.25. Regarding IAFP, the enrichment ratio was not above 0.25.

For the variant ENLW, the enrichment ratio was not above 0.25. With DWPY the figure was not above 0.25.

On to SNCD, for which the enrichment ratio stood at 16.4.

As for MFIP, the enrichment ratio was not above 0.25. With DLVC the figure was not above 0.25. Consider PYQR, for which the enrichment ratio turned out to be 0.539. For PWIS the value was not above 0.25; for SNTW, not above 0.25; for FVGT, not above 0.25. For GMCF the value was 1.76. Regarding DETM, the enrichment ratio is not above 0.25. Regarding KQRT, the enrichment ratio was not above 0.25.

Take EGNK: the enrichment ratio was not above 0.25. As for ISST, the enrichment ratio was not above 0.25. Take NNSM: the enrichment ratio stood at 5.24. For LVYD the value was not above 0.25; for AIWG, not above 0.25; for VAFW, not above 0.25. For the variant IYSG, the enrichment ratio is not above 0.25. For YDFW the value was not above 0.25. Take SMYS: the enrichment ratio was not above 0.25. Regarding VLPL, the enrichment ratio was not above 0.25. Regarding GTLE, the enrichment ratio is 14.3.

As for VCFL, the enrichment ratio is not above 0.25. With SSHW the figure was not above 0.25. For HKNK the value was not above 0.25; for GIDF, not above 0.25.

For the variant QYQY, the enrichment ratio is not above 0.25. With KTNC, the enrichment ratio is not above 0.25. For GNTR, the enrichment ratio is not above 0.25. As to WQFR, the enrichment ratio was not above 0.25. For ICQQ, the enrichment ratio was not above 0.25. For ICKR the value was not above 0.25.

QILW: the enrichment ratio is not above 0.25. For the variant ASHN, the enrichment ratio is not above 0.25. With EKCT the figure was not above 0.25; with NPDC, not above 0.25; with HNCH, not above 0.25.

For QPVH, the enrichment ratio is not above 0.25. For PRWT the value was not above 0.25. With MANM the figure was not above 0.25; with FFHD, not above 0.25. As for IPGN, the enrichment ratio is not above 0.25. Consider INGL, for which the enrichment ratio is not above 0.25.

For HKFR, the enrichment ratio was not above 0.25. Turning to HCFV, the enrichment ratio is not above 0.25. Regarding SQRP, the enrichment ratio was not above 0.25. For QDPM the value was not above 0.25; for FKNH, not above 0.25. In the case of GEFW, the enrichment ratio is not above 0.25. SAMS: the enrichment ratio is 7.54. For GTVW the value was not above 0.25; for KFLT, not above 0.25. For the variant VWNF, the enrichment ratio was not above 0.25. With FFFH the figure was not above 0.25; with LANR, not above 0.25; with IQFT, not above 0.25. For GDCN the value was not above 0.25; for KDEW, not above 0.25; for KIHD, not above 0.25.

As to FWND, the enrichment ratio is not above 0.25. As to VNSS, the enrichment ratio is not above 0.25.

As to PKHV, the enrichment ratio was not above 0.25. Take TLGS: the enrichment ratio worked out at 5.19. With MEKD the figure was not above 0.25; with DLKV, not above 0.25; with RMYI, not above 0.25. With VHNR the figure was not above 0.25. With KSWQ the figure was not above 0.25; with SQVQ, 15.1. As for PWWP, the enrichment ratio was not above 0.25.

As for PSLY, the enrichment ratio is not above 0.25.

For PALP, the enrichment ratio was not above 0.25. In the case of RNNQ, the enrichment ratio is not above 0.25. Turning to SGAE, the enrichment ratio turned out to be 7.08.

For the variant NMKS, the enrichment ratio was not above 0.25.

As to TNAL, the enrichment ratio is 6.87.

Consider ALCW, for which the enrichment ratio is 6.49. For the variant RMHA, the enrichment ratio was not above 0.25. Regarding RAGT, the enrichment ratio was not above 0.25. For the variant SPGS, the enrichment ratio was not above 0.25. For VVVG the value was not above 0.25; for GQLY, 8.08; for GYMN, not above 0.25. For DCML the value was not above 0.25; for VRWT, not above 0.25; for DGTQ, not above 0.25. For MSKG the value was not above 0.25. TRPW: the enrichment ratio is not above 0.25. For the variant LVRD, the enrichment ratio is not above 0.25. For IHKA the value was not above 0.25; for TLSM, 25.5.

Regarding KGCC, the enrichment ratio is not above 0.25. Regarding TMSG, the enrichment ratio was 24.1.

Regarding PGYA, the enrichment ratio was not above 0.25.

SINA: the enrichment ratio turned out to be 3.62. With YDGL the figure was not above 0.25; with GKVD, not above 0.25; with ILAN, not above 0.25. With SEWM the figure was 3.99. With EGVV the figure was not above 0.25. Consider TQNG, for which the enrichment ratio was not above 0.25.

As for FQCF, the enrichment ratio is not above 0.25. Consider YFAC, for which the enrichment ratio was not above 0.25. For QFCN the value was not above 0.25.
